At least one read-out could not be matched to a standard name with certainty.
Assays:
[1] = tested on: Streptococcus pneumoniae (Chester, ATCC49619); experiment: Broth microdilution MIC assay, Streptococcus pneumoniae; format: cell-based; settings: MIC score; for Antibacterial activity Streptococcus pneumoniae: Table AA; for antibacterial activity SP: Table BB
[2] = tested on: Staphylococcus aureus MSSA (Newman); experiment: Broth microdilution MIC assay, MSSA; format: cell-based; settings: MIC score; for Antibacterial activity Staphylococcus aureus (MSSA): Table AA; for antibacterial activity MSSA: Table BB
[3] = tested on: Staphylococcus aureus MRSA (COL); format: cell-based; settings: MIC score; for Antibacterial activity Staphylococcus aureus (MRSA): Table AA; for antibacterial activity MRSA: Table BB
[4] = tested on: penicillin-, erythromycin- and tetracycline-resistant Streptococcus pneumoniae (ATCC 700677), ARSP; format: cell-based; settings: Table BB; MIC score
[5] = tested on: Staphylococcus epidermidis (PCI 1200, ATCC12228); experiment: Broth microdilution MIC assay, Staphylococcus epidermidis; format: cell-based; settings: Table BB; MIC score
[6] = tested on: vancomycin-resistant Enterococcus faecium (ATCC51559); format: cell-based; settings: Table BB; MIC score
[7] = tested on: Enterococcus faecalis (ATCC29212); experiment: Broth microdilution MIC assay, Enterococcus faecalis; format: cell-based; settings: Table BB; MIC score
[8] = tested on: vancomycin-resistant Enterococcus faecalis (ATCC51575); format: cell-based; settings: Table BB; MIC score
[9] = tested on: daptomycin-resistant Staphylococcus aureus (from MRSA, COL); format: cell-based; settings: Table BB, MIC score
[10] = tested on: platensimycin-resistant Staphylococcus aureus (from MRSA, COL); format: cell-based; settings: Table BB, MIC score
[11] = tested on: MRSA (COL) resistant to triclosan; settings: Table BB, MIC score
[12] = tested on: Mycobacterium smegmatis (mc(2)155, ATCC700084); experiment: Broth microdilution MIC assay, Mycobacterium smegmatis; format: cell-based; settings: Table BB; MIC score; 3 days incubation

Compound | Antibacterial activity Streptococcus pneumoniae [1] | antibacterial activity SP [1] | Antibacterial activity Staphylococcus aureus (MSSA) [2] | antibacterial activity MSSA [2] | Antibacterial activity Staphylococcus aureus (MRSA) [3] | antibacterial activity MRSA [3] | antibacterial activity ARSP [4] | antibacterial activity SE [5] | antibacterial activity VREFm [6] | antibacterial activity EFs [7] | antibacterial activity VREFs [8] | antibacterial activity MRSA strains with additional resistance to D [9] | antibacterial activity MRSA strains with additional resistance to P [10] | antibacterial activity MRSA strains with additional resistance to T [11] | antibacterial activity MS [12]
Cc1nc(-c2ccc(-c3ccccc3OC(F)(F)F)o2)[nH]c1-c1cccc(Cl)c1 [Compound 21] | 4 (the compound has an MIC of 1 μg/ml or less for preventing streptococcal growth 100% (MIC100)) | 4 (the compound has an MIC of 1 μg/ml or less for preventing streptococcal growth 100% (MIC100)) | 3 (the compound has an MIC100 of 3-10 μg/ml) | 4 (the compound has an MIC of 1 μg/ml to 3 μg/ml for preventing bacterial growth 100% (MIC100)) | 3 (the compound has an MIC100 of 3-10 μg/ml) | 3 (the compound has an MIC100 of 3-10 μg/ml) | 4 (the compound has an MIC of 1 μg/ml or less for preventing streptococcal growth 100% (MIC100)) | 1 (the compound has an MIC100 of 20-50 μg/ml or an MIC50 of <10 μg/ml) | 1 (the compound has an MIC100 of 20-50 μg/ml or an MIC50 of <10 μg/ml) | 1 (the compound has an MIC100 of 20-50 μg/ml or an MIC50 of <10 μg/ml) | 1 (the compound has an MIC100 of 20-50 μg/ml or an MIC50 of <10 μg/ml) | 4 (the compound has an MIC of 1 μg/ml to 3 μg/ml for preventing bacterial growth 100% (MIC100)) | 3 (the compound has an MIC100 of 3-10 μg/ml) | 3 (the compound has an MIC100 of 3-10 μg/ml) | –
Cc1[nH]c(-c2ccc(-c3ccccc3OC(F)(F)F)o2)nc1-c1ccc(Cl)cc1 [Compound 24] | 4 (the compound has an MIC of 1 μg/ml or less for preventing streptococcal growth 100% (MIC100)) | 4 (the compound has an MIC of 1 μg/ml or less for preventing streptococcal growth 100% (MIC100)) | 3 (the compound has an MIC100 of 3-10 μg/ml) | 3 (the compound has an MIC100 of 3-10 μg/ml) | 3 (the compound has an MIC100 of 3-10 μg/ml) | 3 (the compound has an MIC100 of 3-10 μg/ml) | 4 (the compound has an MIC of 1 μg/ml or less for preventing streptococcal growth 100% (MIC100)) | 1 (the compound has an MIC100 of 20-50 μg/ml or an MIC50 of <10 μg/ml) | – | 1 (the compound has an MIC100 of 20-50 μg/ml or an MIC50 of <10 μg/ml) | 1 (the compound has an MIC100 of 20-50 μg/ml or an MIC50 of <10 μg/ml) | 4 (the compound has an MIC of 1 μg/ml to 3 μg/ml for preventing bacterial growth 100% (MIC100)) | 2 (the compound has an MIC100 of 11-20 μg/ml) | 4 (the compound has an MIC of 1 μg/ml to 3 μg/ml for preventing bacterial growth 100% (MIC100)) | –
Cc1[nH]c(-c2ccc(-c3ccccc3OC(F)(F)F)o2)nc1Cc1ccc(Br)cc1 [Compound 30, 4-(4-Bromo-benzyl)-5-methyl-2-[5-(2-trifluoromethoxy-phenyl)-furan-2-yl]-1H-imidazole] | 4 (the compound has an MIC of 1 μg/ml or less for preventing streptococcal growth 100% (MIC100)) | 4 (the compound has an MIC of 1 μg/ml or less for preventing streptococcal growth 100% (MIC100)) | 3 (the compound has an MIC100 of 3-10 μg/ml) | 3 (the compound has an MIC100 of 3-10 μg/ml) | 3 (the compound has an MIC100 of 3-10 μg/ml) | 3 (the compound has an MIC100 of 3-10 μg/ml) | 4 (the compound has an MIC of 1 μg/ml or less for preventing streptococcal growth 100% (MIC100)) | 2 (the compound has an MIC100 of 11-20 μg/ml) | 1 (the compound has an MIC100 of 20-50 μg/ml or an MIC50 of <10 μg/ml) | – | – | 4 (the compound has an MIC of 1 μg/ml to 3 μg/ml for preventing bacterial growth 100% (MIC100)) | 1 (the compound has an MIC100 of 20-50 μg/ml or an MIC50 of <10 μg/ml) | 2 (the compound has an MIC100 of 11-20 μg/ml) | –
Cc1[nH]c(-c2ccc(-c3ccc(Cl)c(C(F)(F)F)c3)o2)nc1-c1ccc(F)cc1 [Compound 42] | 4 (the compound has an MIC of 1 μg/ml or less for preventing streptococcal growth 100% (MIC100)) | 4 (the compound has an MIC of 1 μg/ml or less for preventing streptococcal growth 100% (MIC100)) | 4 (the compound has an MIC of 1 μg/ml to 3 μg/ml for preventing staphylococcal growth 100% (MIC100)) | 4 (the compound has an MIC of 1 μg/ml to 3 μg/ml for preventing bacterial growth 100% (MIC100)) | 4 (the compound has an MIC of 1 μg/ml to 3 μg/ml for preventing staphylococcal growth 100% (MIC100)) | 4 (the compound has an MIC of 1 μg/ml to 3 μg/ml for preventing bacterial growth 100% (MIC100)) | 4 (the compound has an MIC of 1 μg/ml or less for preventing streptococcal growth 100% (MIC100)) | 3 (the compound has an MIC100 of 3-10 μg/ml) | 1 (the compound has an MIC100 of 20-50 μg/ml or an MIC50 of <10 μg/ml) | 2 (the compound has an MIC100 of 11-20 μg/ml) | 2 (the compound has an MIC100 of 11-20 μg/ml) | 4 (the compound has an MIC of 1 μg/ml to 3 μg/ml for preventing bacterial growth 100% (MIC100)) | 4 (the compound has an MIC of 1 μg/ml to 3 μg/ml for preventing bacterial growth 100% (MIC100)) | 4 (the compound has an MIC of 1 μg/ml to 3 μg/ml for preventing bacterial growth 100% (MIC100)) | 1 (the compound has an MIC100 of 20-50 μg/ml or an MIC50 of <10 μg/ml)
Cc1[nH]c(-c2ccc(-c3ccc(C(F)(F)F)c(Cl)c3)o2)nc1-c1ccc(F)cc1 [Compound 49] | 3 (the compound has an MIC100 of 2-5 μg/ml) | 3 (the compound has an MIC100 of 2-5 μg/ml) | 3 (the compound has an MIC100 of 3-10 μg/ml) | 3 (the compound has an MIC100 of 3-10 μg/ml) | 2 (the compound has an MIC100 of 11-20 μg/ml) | 3 (the compound has an MIC100 of 3-10 μg/ml) | 4 (the compound has an MIC of 1 μg/ml or less for preventing streptococcal growth 100% (MIC100)) | 2 (the compound has an MIC100 of 11-20 μg/ml) | 1 (the compound has an MIC100 of 20-50 μg/ml or an MIC50 of <10 μg/ml) | 2 (the compound has an MIC100 of 11-20 μg/ml) | 1 (the compound has an MIC100 of 20-50 μg/ml or an MIC50 of <10 μg/ml) | 4 (the compound has an MIC of 1 μg/ml to 3 μg/ml for preventing bacterial growth 100% (MIC100)) | 3 (the compound has an MIC100 of 3-10 μg/ml) | 4 (the compound has an MIC of 1 μg/ml to 3 μg/ml for preventing bacterial growth 100% (MIC100)) | –
Cc1ccccc1-c1c[nH]c(-c2ccc(-c3ccccc3OC(F)(F)F)o2)n1 [Compound 66] | 4 (the compound has an MIC of 1 μg/ml or less for preventing streptococcal growth 100% (MIC100)) | 4 (the compound has an MIC of 1 μg/ml or less for preventing streptococcal growth 100% (MIC100)) | 3 (the compound has an MIC100 of 3-10 μg/ml) | 3 (the compound has an MIC100 of 3-10 μg/ml) | 2 (the compound has an MIC100 of 11-20 μg/ml) | 2 (the compound has an MIC100 of 11-20 μg/ml) | 3 (the compound has an MIC100 of 2-5 μg/ml) | 1 (the compound has an MIC100 of 20-50 μg/ml or an MIC50 of <10 μg/ml) | 1 (the compound has an MIC100 of 20-50 μg/ml or an MIC50 of <10 μg/ml) | – | 1 (the compound has an MIC100 of 20-50 μg/ml or an MIC50 of <10 μg/ml) | 4 (the compound has an MIC of 1 μg/ml to 3 μg/ml for preventing bacterial growth 100% (MIC100)) | 2 (the compound has an MIC100 of 11-20 μg/ml) | 3 (the compound has an MIC100 of 3-10 μg/ml) | 2 (the compound has an MIC100 of 11-20 μg/ml)
